Hit rate of the full screen: of about 310,000 compounds, about 2,200 (0.71%) showed an effect of 50% or more. The effect is printed as a negative number. Some of the results follow.
Biological target: human ether-à-go-go-related gene (hERG) potassium channel (human, UniProt Q12809)
Assay: primary screen, population patch clamp on CHO cells stably expressing hERG

Chain of human ether-à-go-go-related gene (hERG) potassium channel (Q12809 whole entry, looked up): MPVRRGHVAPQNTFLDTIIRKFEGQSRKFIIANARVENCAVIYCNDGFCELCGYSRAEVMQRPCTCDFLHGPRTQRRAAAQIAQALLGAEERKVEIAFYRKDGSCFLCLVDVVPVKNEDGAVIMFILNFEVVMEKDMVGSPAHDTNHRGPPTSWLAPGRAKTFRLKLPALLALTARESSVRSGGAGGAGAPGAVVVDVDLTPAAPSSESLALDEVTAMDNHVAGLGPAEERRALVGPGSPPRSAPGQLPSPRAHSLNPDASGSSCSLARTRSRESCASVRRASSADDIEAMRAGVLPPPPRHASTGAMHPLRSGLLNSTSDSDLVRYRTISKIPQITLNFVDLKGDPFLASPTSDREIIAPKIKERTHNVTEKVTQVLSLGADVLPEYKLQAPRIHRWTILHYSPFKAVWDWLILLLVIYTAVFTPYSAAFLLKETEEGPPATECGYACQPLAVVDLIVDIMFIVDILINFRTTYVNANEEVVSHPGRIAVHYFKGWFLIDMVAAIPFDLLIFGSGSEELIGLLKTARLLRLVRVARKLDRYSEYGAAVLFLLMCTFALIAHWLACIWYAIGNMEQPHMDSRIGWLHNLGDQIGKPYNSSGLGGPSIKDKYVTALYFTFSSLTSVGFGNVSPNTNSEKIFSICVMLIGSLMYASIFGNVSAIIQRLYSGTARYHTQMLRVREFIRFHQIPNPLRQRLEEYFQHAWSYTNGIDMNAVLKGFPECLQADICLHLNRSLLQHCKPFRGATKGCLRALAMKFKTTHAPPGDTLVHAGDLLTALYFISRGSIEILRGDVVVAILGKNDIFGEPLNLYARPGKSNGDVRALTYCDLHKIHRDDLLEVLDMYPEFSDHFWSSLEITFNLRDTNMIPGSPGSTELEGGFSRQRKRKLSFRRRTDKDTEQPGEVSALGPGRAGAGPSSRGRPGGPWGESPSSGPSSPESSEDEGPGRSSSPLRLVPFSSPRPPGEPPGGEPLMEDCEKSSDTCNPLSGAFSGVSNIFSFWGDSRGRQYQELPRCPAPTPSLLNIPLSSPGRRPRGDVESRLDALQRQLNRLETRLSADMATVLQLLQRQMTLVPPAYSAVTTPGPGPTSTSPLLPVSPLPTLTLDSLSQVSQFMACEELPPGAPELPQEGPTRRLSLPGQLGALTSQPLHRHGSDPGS

| Compound | hERG current change (%, negative = inhibition) at 1uM |
| --- | --- |
| COc1cccc2cc(C(C)=O)c(=O)oc12 | 10.7% |
| N#CC1=C(N)N(c2ccccc2)C(c2cccc([N+](=O)[O-])c2)C1(C#N)C#N (stereo not shown) | 0.431% |
| N#Cc1c(NC(=O)CSc2ccccn2)oc(-c2ccccc2)c1-c1ccccc1 | 6.16% |
| Cc1ccc(NCc2nnc(SCC(N)=O)o2)c(C)c1 | 9.77% |
| Cc1cc(Cl)ccc1NC(=O)CCC(=O)O | 9.69% |
| O=C1c2ccccc2-c2c1cccc2C(=O)N1CCCCC1 | -2.14% |
| COc1ccc(-c2sc3ccc(N4CCOCC4)cc3c2-c2ccc(OC)c(F)c2)cc1 | 7.97% |
| Nc1nc(NCc2ccc(Cl)cc2)nc(NCCO)c1[N+](=O)[O-] | 8.01% |
| Cc1nc(-c2ccc(F)cc2)c(CC(=O)N2CCN(S(=O)(=O)c3ccc(F)cc3)CC2)s1 | 7.89% |
| Cc1ccc(S(=O)(=O)N2CCC(=O)N(C(COCc3ccc(Cl)c(Cl)c3)Cc3ccccc3)CC2)cc1 (stereo not shown) | 12.2% |
| CC(/C=C1\SC(=S)N(CCCC(=O)Nc2ccc(C(=O)O)cc2)C1=O)=C\c1ccccc1 | 7.78% |
| CCS(=O)(=O)c1nc(S(=O)(=O)c2ccc(Cl)cc2)c(NCc2ccco2)s1 | 15.9% |
| Cc1cc(NS(=O)(=O)c2ccc(NC(=O)c3ccccc3C)cc2)no1 | 14.2% |
| Cc1cc(C)cc(OC(=O)CN2C(=O)c3ccccc3C2=O)c1 | 11.8% |
| COc1ccc(C)cc1NC(=O)CN1C(=O)C2CC=CCC2C1=O (stereo not shown) | 14.9% |
| Cc1ccc(CSC(Nc2ccc(F)cc2)=C(C#N)C#N)cc1 | 17.1% |
| CN(C(=O)COC(=O)c1cc2c(s1)CCCCC2)c1ccccc1 | 3.63% |
| CCC(CC)C(=O)Nc1nnc(S(=O)(=O)N(CC)c2ccc(OC)cc2)s1 | 6.29% |
| Cc1cc(Cl)ccc1C(=O)C1CCCN(C(=O)c2ccc3ncccc3c2)C1 (stereo not shown) | 10.3% |
| Cn1cc(Br)c(C(=O)Nc2c(F)c(F)c(F)c(F)c2F)n1 | 0.502% |
| Cn1ccnc1SCC(=O)N1CCN(S(=O)(=O)c2ccccc2)CC1 | 4.93% |
| Cc1ccc(N(CC(=O)N2CCN(C3CCCCC3)CC2)S(=O)(=O)c2cccnc2)cc1 | -17% |
| CC(C)CCN1CCNC(=O)C1CC(=O)N(C)CCCN1CCOCC1 (stereo not shown) | 12.1% |
| O=C(O)c1ccccc1C(=O)c1ccc2c(c1)N(Cc1cccc(F)c1)C(=O)CO2 | 5.56% |
| C=CCN(CC=C)Cc1nc(N)nc(Nc2ccccc2C)n1 | 6.26% |
| COc1ccc(N2CCSC2C(=O)NN)cc1 (stereo not shown) | 3.32% |
| N#C/C(=C/c1ccccc1)C(=O)OCC(=O)Nc1ccccc1[N+](=O)[O-] | 9.53% |
| CCOC(=O)N1CCN(C(=O)c2cc3cc(C)ccc3[nH]2)CC1 | 13.9% |

| Compound | hERG current change (%, negative = inhibition) at 1uM |
| --- | --- |
| COc1ccc2nc(-c3ccccc3)cc(C(=O)N3CCC3)c2c1 | 4.52% |
| Cc1ccc(-c2c(C)sc3nc[nH]c(=O)c23)cc1C | 14.6% |
| O=C(c1ccc2c(=O)n3c(nc2c1)CCCCC3)N1CCN(Cc2ccccc2)CC1 | 1.78% |
| O=C(CSc1ccccc1C(=O)NCCCN1CCCC1=O)NCc1ccco1 | 7.26% |
| Cc1cc(CNC(=S)Nc2cccc(Cl)c2Cl)nn1C | 17.2% |
| CC1=NNC(=O)C1CC(=O)N/N=C/C(Br)=C/c1ccccc1 (stereo not shown) | 9.59% |
| CCC(C)/C(C)=N/NC(=O)c1cn(-c2ccccc2)nc1-c1ccccc1 (stereo not shown) | 12.9% |
| Cc1noc(C)c1COc1cccc(C(=O)N(C)Cc2nc3ccccc3c(=O)[nH]2)c1 | -3.83% |
| CCCCNC(=S)NNC(=O)c1csc2c1CCC(C)C2 (stereo not shown) | 3.52% |
| CN1CCN(C(=S)C(=O)Nc2ccc(Br)cc2)CC1 | 1.66% |
| CNC(=O)CN(c1cc(OCCOC)c(Cl)cc1Cl)S(=O)(=O)c1ccc(OC)cc1 | 7.02% |
| COc1ccc(NC(=O)CSc2ccccc2)cc1S(=O)(=O)N1CCOCC1 | 1.15% |
| O=C(CCCn1c(=O)[nH]c2ccsc2c1=O)Nc1ccc(F)cc1 | 3.54% |
| Cc1ccccc1CN1N=C(/C=C/c2ccccc2)CCC1=O | 11.3% |
| O=C(/C=C/c1ccccc1)Nc1nnc(-c2ccco2)o1 | -2.4% |
| O=C(Nc1cccc(Br)c1)c1ccc2nc(N3C(=O)CCC3=O)sc2c1 | 16.6% |
| O=C(CN(Cc1ccccc1)C(=O)CCl)c1cccc(Br)c1 | 3.08% |
| CSCCC(NC(=O)C1CCCCC1)c1nc2ccccc2[nH]1 (stereo not shown) | 9.36% |
| COC1CCN(Cc2c(C(=O)N3C[C@@H](C)O[C@@H](C)C3)nc3ccc(Cl)cn23)CC1 | 21.8% |
| COc1ccccc1N1CCN(/N=C/c2cccc(OC)c2O)CC1 | 13.3% |
| CCN1CCN(Cc2ccc(NC(=O)c3cc(NC(=O)c4cncc(-c5cccs5)c4)cc(OC)c3)cc2C(F)(F)F)CC1.O=C(O)C(F)(F)F | 11.1% |
| CCc1ccc(C(=O)NNC(=O)CCc2nc3ccccc3c(=O)[nH]2)cc1 | -4.62% |
| Cc1cc(Cl)cc(C)c1OCCCCn1ccnc1 | -9.14% |
| O=C(CN1C(=O)c2cccnc2Oc2ccc(Cl)cc21)Nc1ccc(F)cc1 | 14.1% |
| CCCC1=[N+](CC(=O)c2ccc(C)cc2)CCn2cccc21.[Br-] | 14.1% |
| CCOC(=O)c1cc(NC(=O)CN2CCCC2)cc(C(=O)OCC)c1 | 14.5% |
| CCOC(=O)CC(=O)NC(CC(=O)OC)c1ccc(C(C)C)cc1 (stereo not shown) | -7.62% |

Source: article PMC4336329 (PLoS ONE, 2015)
